{"source": "PubChem BioAssay AID463173", "about": "(ICCB-Longwood Screening Facility, Harvard Medical School, 2010)", "note": "Among all 52,000 compounds or so, about 1,700 (3.3%) were called active. No stated cut-off is given here; in the data, active means survival mostly below about 52% (no sharp cut-off); inactive means mostly above about 56%. This is one part of the list.", "data": [{"system": "Wild type", "test": "S. aureus survival, RN4220 and DeltatarO strains – OD600, teichoic acid synthesis inhibitors, primary screen (AID 463173)", "settings": "S. aureus RN4220 wild type/DeltatarO growth, OD600, 18 h, active compounds read low, screened at 18.75 µg/mL (by protocol)", "values": [{"smiles": "CCOC(=O)c1ccc(NC(=O)C2CC(=O)NC(=Nc3ccc(C)c(C)c3)S2)cc1", "note": "(centres undefined)", "survival": "inactive: 46%"}, {"smiles": "COc1ccccc1CNC(=O)Cn1c(=O)oc2cc(S(=O)(=O)N3CCCC3)ccc21", "survival": "inactive: 122%"}, {"smiles": "Cc1ccc(N(CC(=O)NCCc2ccccc2C)S(=O)(=O)N(C)C)cc1", "survival": "inactive: 88%"}, {"smiles": "COc1ccccc1CNC(=O)c1cccc(N2CCCS2(=O)=O)c1", "survival": "inactive: 70%"}, {"smiles": "CCCCN(C)CCNC(=O)c1ccc(Cn2c(=O)[nH]c3cc(OC)c(OC)cc3c2=O)cc1", "survival": "inactive: 70%"}, {"smiles": "Cc1cccc(NC(=O)Nc2ccc(F)cc2)n1", "survival": "inactive: 123%"}, {"smiles": "COc1ccc(-c2noc(N(c3ccc(F)c(Cl)c3)c3nc(-c4ccc(OC)c(OC)c4)no3)n2)cc1OC", "survival": "inactive: 95%"}, {"smiles": "COc1cc(-c2nc(S(=O)(=O)c3ccc(Br)cc3)c(N3CCOCC3)o2)cc(OC)c1OC", "survival": "inactive: 56%"}, {"smiles": "COc1ccc(Br)cc1C(=O)Nc1cccc2ccc(C)nc12", "survival": "inactive: 63%"}, {"smiles": "CCc1ccc(CNC(=O)c2ccc3c(Cl)c4c(nc3c2)CCCC4)cc1", "survival": "inactive: 75%"}, {"smiles": "CCc1nc2nc(C)cc(Nc3cc(Cl)ccc3C)n2n1", "survival": "inactive: 73%"}, {"smiles": "Cc1cc(N2CCN(c3cccc(C)c3C)CC2)n2cnnc2n1", "survival": "inactive: 115%"}, {"smiles": "CCOC(=O)c1cnn(-c2ccc(C(=O)Nc3ccc(OC(F)(F)F)cc3)cc2)c1N", "survival": "inactive: 130%"}, {"smiles": "CC(=O)Nc1ccc(NC(=O)C2CCCN(S(=O)(=O)c3ccc4c(c3)CCCC(=O)N4)C2)cc1", "note": "(centres undefined)", "survival": "inactive: 72%"}, {"smiles": "O=C(CCCCCN1C(=O)c2ccccc2C1=O)Nc1nccs1", "survival": "inactive: 112%"}, {"smiles": "COCCn1nnnc1C(c1ccc2ncccc2c1)N1CCc2ccccc21", "note": "(centres undefined)", "survival": "inactive: 110%"}, {"smiles": "COc1ccc(Cl)cc1NC(=O)Cn1ncc2c3ccccc3n(C)c2c1=O", "survival": "inactive: 119%"}, {"smiles": "CCCN(Cc1cccs1)C(=O)Nc1cc(Cl)ccc1C", "survival": "inactive: 81%"}, {"smiles": "Cc1nn(CC(=O)NCc2ccc(F)cc2)c2ccccc12", "survival": "inactive: 84%"}, {"smiles": "Cc1ccc2[nH]c3c(=O)n(CC(=O)NCc4ccco4)ncc3c2c1", "survival": "inactive: 63%"}, {"smiles": "Cc1ccc(C)c(N2CCN(C(=O)CCC(=O)Nc3ccc4nc(N5CCCCC5)cc(C)c4c3)CC2)c1", "survival": "inactive: 63%"}, {"smiles": "Cc1ccc(OCCSc2nnc(-c3cccs3)o2)cc1Cl", "survival": "inactive: 72%"}, {"smiles": "O=C(NCc1ccc(Cl)cc1)c1ccc2c(Cl)c3c(nc2c1)CCCC3", "survival": "inactive: 80%"}, {"smiles": "CCOC(=O)c1cccc(NC(=O)CCCn2nc(C)c3c(C)n(-c4ccccc4)nc3c2=O)c1", "survival": "inactive: 49%"}, {"smiles": "CC(=O)Nc1ccc(NC(=O)C2CCN(c3c(NC(C)=O)c(C)nn3-c3ccccc3)CC2)cc1", "survival": "inactive: 63%"}, {"smiles": "CCOC(=O)c1ccc2nc(C)cc(Nc3cccc(C(=O)O)c3)c2c1", "survival": "inactive: 136%"}, {"smiles": "CCOC(=O)c1c(C)n(-c2ccccc2)c2ccc(OC(=O)c3ccccc3NC(=O)C(C)C)cc12", "survival": "inactive: 58%"}, {"smiles": "COc1ccc(Cl)cc1-n1nnc(-c2nc(-c3ccccc3)no2)c1C", "survival": "inactive: 69%"}, {"smiles": "COc1ccc(-c2nc3cc(C(C)C)ccc3o2)cc1NC(=O)c1ccccc1[N+](=O)[O-]", "survival": "inactive: 76%"}, {"smiles": "COc1ccc(NC(=O)C2COc3ccccc3C2)cc1Cl", "note": "(centres undefined)", "survival": "inactive: 80%"}, {"smiles": "CCOc1ccccc1CNC(=O)CCn1c(=O)c2cccn2c2ccc(F)cc21", "survival": "inactive: 75%"}, {"smiles": "COc1ccc2c(c1)c(=O)c(C(=O)c1ccc(C)c(C)c1)cn2CC(=O)Nc1ccc2c(c1)OCCO2", "survival": "inactive: 82%"}, {"smiles": "Cc1ccc(CNc2nc(-c3ccco3)nn2S(C)(=O)=O)cc1", "survival": "inactive: 109%"}, {"smiles": "Cc1ccc(Cn2c(CN3CCC(C(=O)NCc4ccccc4C)CC3)cc3ccccc32)cc1", "survival": "inactive: 71%"}, {"smiles": "CC(C)Cc1ccc(S(=O)(=O)N2CCC(c3ccncc3)CC2)cc1", "survival": "inactive: 134%"}, {"smiles": "COc1ccccc1N1CCN(C(=O)Cn2c(=O)n3nc(-c4ccc(C)cc4)nc3c3ccccc32)CC1", "survival": "inactive: 88%"}, {"smiles": "COc1ccc(NC(=O)c2cccc(N3CCCS3(=O)=O)c2)cc1OC", "survival": "inactive: 73%"}, {"smiles": "COC(=O)c1ccc(NC(=O)CCS(=O)(=O)c2ccc(Br)s2)cc1", "survival": "inactive: 87%"}, {"smiles": "Cc1nc(N2CCCC2)ncc1C(=O)NCc1cccc(Cl)c1", "survival": "inactive: 72%"}, {"smiles": "O=C(Nc1ccccc1)/C(=C/c1ccccc1)NC(=O)c1ccco1", "survival": "inactive: 110%"}, {"smiles": "CCc1ccc(NC(=O)CSc2nc3ccccc3nc2Cc2ccc(C)cc2)cc1", "survival": "inactive: 75%"}, {"smiles": "CCN1CCN(c2ccc(NC(=O)COc3ccccc3)cc2)CC1", "survival": "inactive: 113%"}, {"smiles": "COc1ccc(C)cc1NC(=O)CN1c2ccccc2S(=O)(=O)c2ccccc21", "survival": "inactive: 88%"}, {"smiles": "COc1ccc(C(=O)CSc2nc(C)cc(C)c2C(=O)Nc2ccccc2C)cc1", "survival": "inactive: 83%"}, {"smiles": "Cc1nnc(N2C(=O)c3oc4ccccc4c(=O)c3C2c2ccc(C(C)(C)C)cc2)s1", "note": "(centres undefined)", "survival": "inactive: 129%"}, {"smiles": "COC(=O)c1ccc(NC(=O)CC2C(=O)N(c3cccc(OC)c3)C(=O)N2Cc2ccco2)cc1", "note": "(centres undefined)", "survival": "inactive: 79%"}, {"smiles": "COCCNC(=O)c1ccc2c(=O)n(CCc3ccccc3)c(SCC(=O)CC(=O)OC)nc2c1", "survival": "inactive: 78%"}, {"smiles": "COc1cccc(-c2nc(S(=O)(=O)c3ccccc3)c(N3CCCCC3)o2)c1", "survival": "inactive: 81%"}, {"smiles": "CCC(C)NC(=O)CSc1nc2cc3c(cc2c(=O)n1CCCC(=O)NCCc1ccc(OC)c(OC)c1)OCO3", "note": "(centres undefined)", "survival": "inactive: 82%"}, {"smiles": "CCC(C(=O)NCc1ccccc1)N(C(=O)Cn1nnc(-c2cccs2)n1)c1ccccc1OC", "note": "(centres undefined)", "survival": "inactive: 108%"}, {"smiles": "Cc1cccc(OCCSc2nc3ccccc3n2CC(=O)N2CCOCC2)c1", "survival": "inactive: 82%"}, {"smiles": "c1ccc2c(NC3CCCC3)nc(N3CCNCC3)nc2c1", "survival": "inactive: 111%"}, {"smiles": "COc1ccccc1CNC(=O)c1ccc(CS(=O)(=O)c2c(Cl)cccc2Cl)o1", "survival": "inactive: 70%"}, {"smiles": "CCCn1c(=O)c2sccc2n2c(CCCC(=O)N3CCN(c4ccccc4OC)CC3)nnc12", "survival": "inactive: 107%"}, {"smiles": "CCOC(=O)c1c(C)[nH]c(C)c1S(=O)(=O)N(C)CC(=O)Nc1cc(Cl)ccc1C", "survival": "inactive: 71%"}, {"smiles": "Cc1ccccc1OCCCCn1c(-c2ccc(Cl)cc2)nc2ccccc2c1=O", "survival": "inactive: 70%"}, {"smiles": "CCOC(=O)c1ccc(N2C(=O)c3[nH]nc(-c4ccc(C)cc4)c3C2c2ccc(O)c(OCC)c2)cc1", "note": "(centres undefined)", "survival": "inactive: 91%"}, {"smiles": "C=CCNC(=O)c1ccc2nc(-c3ccco3)c(-c3ccco3)nc2c1", "survival": "inactive: 120%"}, {"smiles": "CCc1ccc(CNC(=O)c2c3c(nc4ccccc24)C(=O)N(C2CCCCC2)C3)cc1", "survival": "inactive: 32%"}, {"smiles": "COc1cc2c(=O)c(C(=O)c3ccc(C)c(C)c3)cn(Cc3ccccc3F)c2cc1OC", "survival": "inactive: 127%"}, {"smiles": "CCn1c(SCC#N)nnc1-c1ccc(S(=O)(=O)N2CCCC2)cc1", "survival": "inactive: 100%"}, {"smiles": "COC(=O)c1cc(-c2ccccc2)oc1CN", "survival": "inactive: 123%"}, {"smiles": "Cc1ccc2c(=O)cc(C(=O)Nc3sc4c(c3C(=O)NCc3ccco3)CCC4)oc2c1", "survival": "inactive: 88%"}, {"smiles": "CC1=C(C(=O)OCc2ccc(C)cc2)C(c2ccccc2F)CC(=O)N1", "note": "(centres undefined)", "survival": "inactive: 115%"}, {"smiles": "COc1cc(NC(=O)CCc2c(C)nn(-c3ccc(N4CCOCC4)nn3)c2C)cc(OC)c1OC", "survival": "inactive: 119%"}, {"smiles": "O=C(NCc1ccccc1F)C1CCN(c2nnc(-n3cccc3)s2)CC1", "survival": "inactive: 84%"}, {"smiles": "COc1ccccc1NC(=O)CSc1nnc(-c2ccccc2C)o1", "survival": "inactive: 80%"}, {"smiles": "COc1ccc2c(c1)c(=O)c(C(=O)c1ccccc1)cn2CC(=O)Nc1ccc2c(c1)OCCO2", "survival": "inactive: 91%"}, {"smiles": "O=C1CC(Cc2ccccc2)C(=O)N1Cc1ccco1", "note": "(centres undefined)", "survival": "inactive: 103%"}, {"smiles": "COc1cccc(CNC(=O)C2CCN(c3nc4ccc(Cl)cc4[nH]3)CC2)c1", "survival": "inactive: 78%"}, {"smiles": "CCCCc1cc(=O)oc2cc(C)c3c(C)coc3c12", "survival": "inactive: 96%"}, {"smiles": "CSc1ncc(Cl)c(C(=O)Nc2ccc(S(=O)(=O)N3CCC(C)CC3)cc2)n1", "survival": "inactive: 87%"}, {"smiles": "Cn1cnc(S(=O)(=O)N2CCCC(C(=O)Nc3ccc(F)cc3Cl)C2)c1", "note": "(centres undefined)", "survival": "inactive: 79%"}, {"smiles": "Cc1ccc(Cn2c(C(=O)Nc3cccc(Cl)c3)cc3sccc32)cc1", "survival": "inactive: 83%"}, {"smiles": "Cn1nnnc1SCCNCc1ccccc1OCc1ccccc1F", "survival": "inactive: 121%"}, {"smiles": "Cc1ccc(C2c3c(-c4ccccc4O)n[nH]c3C(=O)N2CCCO)cc1", "note": "(centres undefined)", "survival": "inactive: 69%"}, {"smiles": "CCOC(=O)c1cccc(NC(=O)c2ccc3c(c2)nnn3C2CCCC2)c1", "survival": "inactive: 80%"}, {"smiles": "O=C(NCCn1cc(SCc2ccc(F)cc2)c2ccccc21)c1c(F)cccc1F", "survival": "inactive: 68%"}, {"smiles": "COC(=O)C1C(c2ccccc2)C(C(=O)OCc2ccco2)C1c1ccccc1", "note": "(centres undefined)", "survival": "inactive: 118%"}, {"smiles": "CSc1nc(C)cc(Nc2c(C)cc(C)cc2C)n1", "survival": "inactive: 84%"}, {"smiles": "COc1cccc(C(=O)Nc2ccc(Cl)c(-c3nc4ccccc4[nH]3)c2)c1", "survival": "inactive: 66%"}, {"smiles": "COc1ccc2c(c1)CC(NC(=O)Nc1cc(Cl)ccc1OC)CO2", "note": "(centres undefined)", "survival": "inactive: 83%"}, {"smiles": "CC(=O)c1ccc(N2CCN(S(=O)(=O)c3ccc4c(c3)CC(C)N4C(=O)C3CCC3)CC2)cc1", "note": "(centres undefined)", "survival": "inactive: 74%"}, {"smiles": "COC(=O)c1ccc(NS(=O)(=O)c2ccc(-n3cccn3)cc2)cc1", "survival": "inactive: 72%"}, {"smiles": "O=C(O)CSc1nnc(-c2ccccc2)o1", "survival": "inactive: 109%"}, {"smiles": "CCc1ccc(OCCCSc2nc(-c3ccc(C(C)(C)C)cc3)nc3cc(=O)[nH]n23)cc1", "survival": "inactive: 73%"}, {"smiles": "Cc1ccc(S(=O)(=O)c2cn(C)c3cc(N4CCCCCC4)c(F)cc3c2=O)cc1", "survival": "inactive: 80%"}, {"smiles": "Cc1ccccc1NC(=O)c1ccc2nc(Cc3ccccc3)oc2c1", "survival": "inactive: 81%"}, {"smiles": "COc1ccccc1C(=O)Nc1c(C(=O)N(CCN(C)C)Cc2ccco2)oc2ccccc12", "survival": "inactive: 65%"}]}]}
